In all, about 33,000 sequences were measured (“E-score (-0.5 to 0.5)”: median about -0.012, highest 2% from about 0.27 on). The list shows a part of the results.

The target of the assay is T1, Vhr1 (UniProt P40522).
T1 sequence: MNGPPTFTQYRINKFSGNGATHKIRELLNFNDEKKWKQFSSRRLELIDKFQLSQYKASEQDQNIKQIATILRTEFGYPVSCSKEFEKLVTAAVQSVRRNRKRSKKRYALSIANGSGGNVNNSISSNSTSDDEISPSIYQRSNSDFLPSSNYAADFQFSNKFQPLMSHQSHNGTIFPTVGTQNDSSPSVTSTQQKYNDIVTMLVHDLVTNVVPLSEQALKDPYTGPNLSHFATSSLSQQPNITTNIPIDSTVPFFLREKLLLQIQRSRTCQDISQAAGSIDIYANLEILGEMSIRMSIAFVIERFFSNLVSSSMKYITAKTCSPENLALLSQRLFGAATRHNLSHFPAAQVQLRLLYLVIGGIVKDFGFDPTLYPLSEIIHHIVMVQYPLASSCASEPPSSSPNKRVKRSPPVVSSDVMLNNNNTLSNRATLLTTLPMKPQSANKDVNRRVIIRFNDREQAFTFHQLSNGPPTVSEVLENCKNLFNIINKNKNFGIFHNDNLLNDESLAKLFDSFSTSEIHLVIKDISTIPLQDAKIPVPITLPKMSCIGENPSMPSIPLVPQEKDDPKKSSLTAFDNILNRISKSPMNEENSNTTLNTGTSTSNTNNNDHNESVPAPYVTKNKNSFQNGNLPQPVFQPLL
Put plainly: PBM E-score (8-mer binding enrichment) (E-score (-0.5 to 0.5)); higher = stronger / more preferred TF binding; most listed sequences are background and not binding sites. The following applies: protein concentration: 200 nM; construct: GST-full length. The procedure, abridged: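 Detection of bound protein used fluorescent anti-GST, with scans normalised by masliner. The proteins were GST-tagged yeast transcription factors applied at about 100-200 nM to universal all-10-mer Agilent arrays made double-stranded by primer extension. Each ungapped eight-base word, pooled with its reverse complement, was scored with an E-score from the Universal PBM Analysis Suite.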
On to CAAGGGTG, for which the “PBM E-score” value was -0.054.
With GGAACGAA, the “PBM E-score” value was -0.0222.
The figure for ACCCCTTA is -0.107; for GTGTAAGA it is -0.0552.
In the case of CTAGAGAG, the “PBM E-score” value was -0.271.
The figure for CTACCGTC is -0.075; for AACGGATC it is 0.187.
The figure for CGATTAGC is 0.0495.
As to ATCATTCA, the “PBM E-score” value turned out to be 0.162.
CGCTAGAG: the “PBM E-score” value was -0.0995.
On to AGGACACT, for which the “PBM E-score” value is -0.206.
Regarding ACCGAGCC, the “PBM E-score” value stood at 0.0219.
To TACTAGGA belongs -0.0275; to CCAATCGG, -0.136.
With CTCATCCA, the “PBM E-score” value came out at 0.133.
For TTGGGAAA, the “PBM E-score” value is -0.0776.
For the sequence ATCTTACA, the “PBM E-score” value is -0.115.
The figure for CCCGGTAG is -0.00715; for AGAAAAGC it is -0.173.
Take GACGAGAA: the “PBM E-score” value turned out to be 0.0532.
Take GGCGCACA: the “PBM E-score” value was determined as 0.00673.
With CGTAAAGC, the “PBM E-score” value is -0.228.
On to TAATATCA, for which the “PBM E-score” value was found to be 0.0581.
As for GCCGACGA, the “PBM E-score” value was 0.113.
Take ACGTAGAC: the “PBM E-score” value is -0.255.
Consider CGATTCGC, for which the “PBM E-score” value came out at 0.204.
The figure for ACAGTAGC is 0.0517; for GATTGCAA it is 0.0914.
For the sequence AGATGCGC, the “PBM E-score” value was -0.136.
ACTATAAC: the “PBM E-score” value came to 0.0602.
Regarding CGAACTAC, the “PBM E-score” value came to 0.131.
As for CTGAGAGC, the “PBM E-score” value was -0.118.
On to AGAGGTCC, for which the “PBM E-score” value was -0.0223.
As to AAATCTTA, the “PBM E-score” value is -0.0819.
With CTTTCGTC, the “PBM E-score” value was -0.108.
Take ACTATTCG: the “PBM E-score” value is -0.0421.
For the sequence CTGACATA, the “PBM E-score” value came out at 0.0321.
The figure for CGGCACTA is 0.0421.
The figure for CCAAGAAG is -0.144; for CCGCATAA it is 0.188.
In the case of CTTGGAGC, the “PBM E-score” value is -0.11.
The figure for GCACCTCC is -0.136.
For CATGGAGC, the “PBM E-score” value came to 0.0853.
In the case of GCCGTATA, the “PBM E-score” value was -0.0816.
On to CATCCGAA, for which the “PBM E-score” value stood at 0.0481.
On to CGGCCGTC, for which the “PBM E-score” value is -0.141.
As for CACTGCCC, the “PBM E-score” value was determined as 0.0947.
To AGGCGGCG belongs 0.0356; to AAAGCGGA, -0.0824.
The figure for ACCCCCGG is -0.093.
For the sequence GGAACACA, the “PBM E-score” value came out at 0.0124.
With AAGAGCGC, the “PBM E-score” value is -0.0393.
Take CGTTAAAA: the “PBM E-score” value is -0.336.
To ACTATCCC belongs -0.0165; to CGGGTAAG, -0.00697; to GGGACGAC, 0.0124.
With AGCGACGA, the “PBM E-score” value is -0.0426.
For the sequence TACCATAA, the “PBM E-score” value came out at 0.119.
TACAATAA: the “PBM E-score” value is -0.0976.
Turning to GTGCCACA, the “PBM E-score” value is -0.236.
Consider ATGTTGCA, for which the “PBM E-score” value was -0.0483.
For AAAGGTCA, the “PBM E-score” value was -0.173.
On to GGGTAGCA, for which the “PBM E-score” value is -0.0389.
In the case of TCACCAGA, the “PBM E-score” value was 0.0739.
Consider CCCCGCTA, for which the “PBM E-score” value was -0.0924.
Take GGTCGTTA: the “PBM E-score” value was 0.0152.
As for AGAGACCG, the “PBM E-score” value was -0.134.
To GCCCAATA belongs 0.0616; to ATTGTCAC, 0.0489; to CCTAACCA, 0.13.
On to ACACCTAG, for which the “PBM E-score” value is 0.00135.
CGGCACGA: the “PBM E-score” value came to 0.154.
CACCTATG: the “PBM E-score” value came out at 0.141.
For ACCTGTCA, the “PBM E-score” value was 0.0978.
Turning to GCGTGCTA, the “PBM E-score” value was -0.27.
As to ATAGATGG, the “PBM E-score” value is -0.0985.
CTGCTCTA: the “PBM E-score” value was -0.0486.
Consider CATGTTCC, for which the “PBM E-score” value is -0.0214.
As to GCTGCCTA, the “PBM E-score” value was -0.0572.
As to ACGGGTGC, the “PBM E-score” value was -0.0228.
Consider AAATCTAC, for which the “PBM E-score” value is -0.0558.
With CAATTATA, the “PBM E-score” value was -0.0739.
CGCCTTTA: the “PBM E-score” value is -0.158.
Turning to CGGTAGTA, the “PBM E-score” value is -0.0683.
CCAGTCTA: the “PBM E-score” value was -0.16.
To GCTTGTGA belongs -0.0581.

(Values after the supplement of paper PMC3334620.)
